The whole screen tested about 46,000 compounds, of which about 60 (0.1%) were called active. About 3% were inconclusive and are not listed. The call rests on the fitted dose curve; in most records, active means well fitted inhibition curve with a large enough effect; inconclusive means small, poorly fitted or top-dose-only effect; inactive means no such curve, though single readings can be large or run the other way. This is one part of the list.
assay: Primary qHTS assay for Inhibitors of ovarian cancer metastasis using an organotypic tumor microenvironment (TME) model.; further: nearly all actives have a fitted effect of over 65% in size;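 on activity change, negative = inhibition: plate controls were DMSO wells for no effect and tomatine positive control wells for full effect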; conditions: SKOV3ip1-GFP adhesion/invasion on 3D omental model, fluorescence; series mostly up to 45.8 µM; activity change, negative = inhibition: at the top concentration
Outline: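 qHTS, 4-pt dose (0.36-46 umol/L); SKOV3ip1-GFP, 1,200 cells/well, no FBS; primary omental fibroblast/mesothelial co-culture 48 h pre-grown; 2 h RT + 16 h 37 C; PBS wash, 4% PFA; GFP count 488/509 nm.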

Activity change, negative = inhibition, inactive:
O=C(O)c1ccc(CNCc2ccccc2Cl)s1 -18%, Cc1cc(C)cc(NC(=O)CSc2oc(-c3ccco3)nc2S(=O)(=O)c2ccc(Cl)cc2)c1 -23.9%, Cn1nc(C(=O)NCc2ccccc2Cl)c2c1-c1ccccc1S(=O)(=O)C2 0.0933%, CSc1ccc(CNC(=O)C2CCN(c3nc4ccccc4nc3C(F)(F)F)CC2)cc1 7.38%, O=C(Nc1cc(Cl)ccc1Cl)c1cc2nc(-c3ccc4c(c3)OCO4)cc(C(F)(F)F)n2n1 1.75%, Cc1nnc(NC(=O)CSc2nccn2Cc2ccc(Cl)cc2)s1 0.205%, O=C(CSc1cn(CCNC(=O)c2c(F)cccc2F)c2ccccc12)Nc1ccc(F)cc1 9.65%, CCN(CC)CCNC(=O)c1cn(CCOC)c(=O)c2c1c1ccccc1n2C -2.97%, COc1ccc(-n2ncc(C(=O)N3CCN(c4cc(C)ccc4C)CC3)c2C2CCN(C(=O)OC(C)(C)C)CC2)cc1 11.7%, Cc1ccc(Cl)cc1N1CCN(c2ncnc3c2nc2n3CCCCC2)CC1 -25.4%, COc1ccc(Nc2cc(C)c3cc(NC(=O)Cc4ccc(Cl)cc4)ccc3n2)cc1 4.95%, CCN(CC)S(=O)(=O)c1cccc(C(=O)Nc2sc3c(c2C#N)CCC(C)C3)c1 (configuration not stated) 55.5%, COc1ccc2c(c1)c1c(c(=O)n(-c3ccccc3C)c(=O)n1C)n2C 3.06%, Cc1cc(C)c(S(=O)(=O)N2CCC(N3CCN(Cc4ccccc4)C(=O)C3=O)CC2)c(C)c1 -1.04%, O=C(Nc1ccc(F)c(Cl)c1)N1CCC2(CC1)Oc1ccccc1C(=O)N2Cc1ccccc1F -12.2%, COc1ccccc1N1CCN(C(CNC(=O)C(=O)NCc2ccc(F)cc2)c2cccnc2)CC1 (configuration not stated) 0.976%, CCS(=O)(=O)c1ncc(Cl)c(C(=O)Nc2c(C(=O)Nc3cccc(C)c3)oc3ccccc23)n1 -8.46%, Cc1ccc(-c2c(C(=O)N3CCN(c4cc(Cl)ccc4C)CC3)oc(=O)c3ccccc23)cc1 -25.4%, COc1ccc(C)cc1NC(=O)c1cc2c(=O)n(Cc3cccnc3)ccc2nc1C -5.93%, Cc1nc2nc(NC(=O)CC(C)C)[nH]n2c(=O)c1Cc1ccccc1 1.87%, CCc1ccccc1NC(=O)Cc1ccc(NC(=O)N2CCCCc3ccccc32)cc1 15%, Cc1ccc(CCNC(=O)c2cc3n(n2)CCCN(Cc2ccc(C)cc2)C3=O)cc1 5.35%, CCc1nnc(SCC(=O)Nc2cc(OC)ccc2OC)nc1CC -6.61%, CCOc1ccc(S(=O)(=O)N(CC(=O)NCCSc2ccc(C)cc2)c2ccccc2)cc1 15.2%, Cn1c(=O)c(=O)n(C)c2cc(N3CCCC3)c(NC(=O)c3ccccc3F)cc21 -1.1%, Cc1ccc(NC(=O)CSc2nc(=O)n(Cc3ccco3)c3c2CCC3)cc1F 7.64%, CCCCn1cc(S(=O)(=O)c2ccc(C)c(C)c2)c(=O)c2cc(F)c(N(CC)CC)cc21 8.16%, COc1ccc(-c2nc(CN3CCC(C(=O)NCCc4ccccc4)CC3)c(C)o2)cc1OC -1.42%, CCC(=O)N1CCc2cc(CNC(=O)c3ccc(OC)cc3)ccc21 -6.63%, Cc1ccc(NC(=O)c2cc(S(=O)(=O)NC3CCCCC3)ccc2F)cc1Cl -30.5%, CCn1nnc2cc(C(=O)Nc3ccc(C)c(Cl)c3)ccc21 -2.41%, CCOc1ccc(-c2nnc(SCC(=O)Nc3ccc(C)cc3Cl)o2)cc1 6.49%, CCC(=O)N1CCc2cc(CNC(=O)Cc3ccc(F)cc3)ccc21 -6.7%, COC(=O)c1ccccc1NC(=O)c1cc(CN2CCCC2)on1 1.93%, Cc1nn(S(=O)(=O)c2ccc(C(C)(C)C)cc2)c(C)c1S(=O)(=O)N1CCC(C)CC1 -25%, Cc1ccc(Cn2c(CNC(=O)Cc3cccc(C)c3)nc3cccnc32)cc1 -12.9%, COc1ccc(OC)c(CCNC(=O)c2cnn(-c3ccc(C)cc3C)c2C2CCN(C(=O)OC(C)(C)C)CC2)c1 1.85%, Cc1c(C(=O)N2CCC(C)CC2)c(S(=O)(=O)Nc2cccc(C(F)(F)F)c2)c(C)n1C 11.7%, COc1ccccc1CNC(=O)c1cnc(SC)nc1C 3.4%, CC(C)N(Cc1ccccc1)C(=O)C1CCCN(c2ncnc3onc(-c4ccc(F)cc4)c23)C1 (configuration not stated) -2.88%, COCCN1C(=O)c2oc3ccc(C)cc3c(=O)c2C12C(=O)N(C)c1ccccc12 (configuration not stated) -4.92%, CC(=O)Nc1ccc(NC(=O)C2(c3cccs3)CCOCC2)cc1 0.292%, CC(C)C[C@H](NC(=O)CNC(=O)c1cc(Cl)ccc1Cl)B1OC(=O)CC(CC(=O)O)(C(=O)O)O1 (some centres not stated) 8.47%, O=C(Nc1cc(-c2nc3cc(Cl)ccc3o2)ccc1Cl)c1cc([N+](=O)[O-])ccc1N1CCOCC1 0.353%, COc1ccc(NC(=O)c2sc3nc4c(c(-c5ccc(OC)cc5)c3c2N)C(=O)CC(C)(C)C4)cc1 3.52%, COc1ccc(-c2nc3scc(CCNC(=O)c4cccc(Br)c4)n3n2)cc1 -4.94%, CCOC(=O)c1ccc(NC(=O)CC2Nc3ccccc3NC2=O)cc1 (configuration not stated) -14.6%, CCOC(=O)c1ccc(N2C(=O)c3[nH]nc(-c4ccc(OCC)cc4)c3C2c2cccs2)cc1 (configuration not stated) -2.6%, Cc1cc2n(n1)CCC(=O)N2Cc1ccc(C(=O)Nc2ccc(F)cc2F)cc1 5.77%, CCOc1cccc2c1Oc1nc(-c3ccccc3)nc(SCC(=O)Nc3ccc(F)cc3)c1C2 7.13%, O=C(c1ccccc1Cl)N1CCCCC1CCN1CCOCC1 (configuration not stated) 29.7%, Cc1ccc(-c2nnc(Nc3ccc(F)cc3)c3ccccc23)cc1S(=O)(=O)N1CCN(C)CC1 -26.9%, COc1ccccc1OCc1nc(C#N)c(NCc2ccc(C)cc2)o1 -3.31%, CCn1cc(C(=O)O)c(=O)c2cc(F)c(N3CCNCC3)cc21 -4.37%, Cn1c(=O)oc2cc(S(=O)(=O)CCC(=O)NCCc3ccc(Cl)cc3)ccc21 3.97%, Cc1ccc(Cl)cc1N1CCN(S(=O)(=O)c2cc(Br)cc3c2N(C(=O)C2CC2)CC3)CC1 -5.54%, CC(=O)Nc1ccc(NC(=O)C(Cc2ccccc2)NS(=O)(=O)c2ccc3c(c2)oc(=O)n3C)cc1 (configuration not stated) 1.88%, CCOC(=O)CC(NC(=O)CCc1c(C)nc2c(c1C)c(=O)n(C)c(=O)n2C)c1ccc(OCC)c(OC)c1 (configuration not stated) -13.3%, CCOc1cc(-c2ccc(OC(=O)c3ccc(OC)cc3)c(OC)c2)cc(=O)c2c(C)oc(C)c12 2.03%, COc1ccc(S(=O)(=O)N(CC(=O)Nc2cc(Cl)ccc2C)Cc2ccccc2)cc1OC 4.27%, Cc1ccc(N(CC(=O)Nc2cc(C)ccc2C)S(=O)(=O)c2c(C)noc2C)cc1 -6.46%, O=S(=O)(c1ccc(Cl)cc1)c1nnn2c1nc(NCc1ccc3c(c1)OCO3)c1sccc12 14.6%, CC(=O)c1ccc(NC(=O)c2ccc(-n3cnnc3)cc2)cc1 0.307%, Cc1ccc(COC(=O)c2[nH]c3c(c2C)C(=O)CC(c2ccc(N(C)C)cc2)C3)cc1 (configuration not stated) 2.93%, CCOc1ccccc1NC(=O)C1CCN(S(=O)(=O)c2ccc3c(c2)CCCN3C(C)=O)CC1 -3.57%, COc1cc(Cl)c(NS(=O)(=O)c2cc(-c3cc(C)no3)ccc2OC)c(OC)c1 4.81%, COc1ccc(-n2c(SCC(=O)c3ccccc3)nc3c([nH]c4ccccc43)c2=O)cc1 -8.48%, CCCCN(CC)CCNC(=O)C1CCCN(c2ncnc3onc(C)c23)C1 (configuration not stated) 0.974%

outcome, inactive:
COc1ccc(Cl)cc1NC(=O)C1CCN(S(=O)(=O)c2ccc3c(c2)CC(C)N3C(C)=O)CC1 (configuration not stated), COc1ccc(CNCc2c(C(=O)O)c(C)n(Cc3ccccc3C)c2C)c(OC)c1, Cc1cccc(Cn2c(COc3ccc(Cl)cc3)nc3ccccc32)c1, O=C(Nc1sc2c(c1C(=O)Nc1cccc(Cl)c1)CCCC2)c1cccs1, CCn1nc(-c2ccccc2)c(-c2ccccc2)c(C(=O)Nc2nc(C)c(C(C)=O)s2)c1=O, Cc1ccc2c(c1)-c1onc(C(=O)N3CCN(c4cc(Cl)ccc4C)CC3)c1CO2, COc1ccc(CNC(=O)Cn2c(=O)ccc3cc(S(=O)(=O)N4CCCC4)ccc32)cc1, CC(=O)c1ccc(N2CCN(S(=O)(=O)c3cc(-c4noc(C)n4)ccc3C)CC2)cc1, CCOC(=O)c1c(NC(=O)COc2ccc(C)cc2C(C)(C)C)sc2c1CCC(C)C2 (configuration not stated), COCC(=O)Nc1cccc(-c2nc3cccnc3s2)c1, COC(=O)c1cc2oc3ccccc3c2n1Cc1nc(-c2cccc(C)c2)oc1C, COc1ccc2[nH]cc(CCNC(=O)c3cnn(-c4ccc(C)cc4)c3C3CCN(C(=O)OC(C)(C)C)CC3)c2c1, Cc1cc(-c2ccc(S(=O)(=O)N3CCN(c4ccc(Cl)cc4)CC3)s2)on1, Cn1c(=O)c2sccc2n2c(CCCC(=O)NC3CCCCC3)nnc12, COc1ccc(NCc2cc3cc4c(cc3n(CC(=O)Nc3ccc(C)c(C)c3)c2=O)OCO4)cc1, CC(C)(C)OC(=O)N1CCC(c2c(C(=O)N3CCCCC3)cnn2-c2ccccc2Cl)CC1, COc1ccc(-c2nn(-c3ccccc3)cc2C2NC(=O)NC(C)=C2C(=O)OC(C)C)cc1Cl (configuration not stated), CCOC(=O)c1cc(-c2ccc(F)cc2)n(CCC(=O)Nc2nc3ccc(OC)cc3s2)c1C, CCn1nc(C)c2c(-c3ccccc3)cc(=O)n(C(C)C(=O)NCCc3ccc(OC)c(OC)c3)c21 (configuration not stated), CCOc1ccc(S(=O)(=O)Nc2cc3c(C(=O)OC)c(COC)oc3c3ccccc23)cc1, Cc1ccc(-n2nc(C)c3c(C)cc(=O)n(CC(=O)NC(C)c4ccccc4)c32)cc1 (configuration not stated), Cc1ccc(N=C2NC(=O)CC(C(=O)Nc3cc(C(F)(F)F)ccc3Cl)S2)cc1 (configuration not stated), CCC(=O)N1c2ccccc2CC1C(=O)NCc1ccc(N(C)C)cc1 (configuration not stated), Cc1ccc(CSCCC(=O)NCc2ccc(F)cc2Cl)cc1
